Results as given in the supplement of paper PMC3334620.
Whole data set: some 33,000 sequences, median “E-score (-0.5 to 0.5)” near -0.04, cut for the highest 2% near 0.36. The list shows a part of the results.

The sequences below were run against T1, Hmlalpha2 (UniProt P0CY09) (assay: PBM E-score (8-mer binding enrichment) (E-score (-0.5 to 0.5)); higher = stronger / more preferred TF binding; most listed sequences are background and not binding sites). Conditions: protein concentration: 200 nM; construct: GST-full length.
T1 sequence: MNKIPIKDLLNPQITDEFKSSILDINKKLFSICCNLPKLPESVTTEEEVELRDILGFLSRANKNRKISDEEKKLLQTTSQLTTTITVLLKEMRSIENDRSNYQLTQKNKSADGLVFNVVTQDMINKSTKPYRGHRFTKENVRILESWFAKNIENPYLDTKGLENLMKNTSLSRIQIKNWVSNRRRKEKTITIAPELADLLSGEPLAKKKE
Summary of the method: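 Yeast transcription factors carrying a GST tag, as full-length proteins or DNA-binding domains, were produced by PURExpress in vitro transcription/translation. About 100-200 nM protein was applied to universal all-10-mer Agilent arrays, double-stranded by primer extension on fresh or once-stripped slides. Bound protein was detected with fluorescent anti-GST, and scans were normalised with masliner. The Universal PBM Analysis Suite gave each ungapped eight-base word, pooled with its reverse complement, an E-score, a modified Wilcoxon-Mann-Whitney statistic.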

| Sequence | PBM E-score |
| --- | --- |
| AATTGGTC | 0.145 |
| ATATCCAT | 0.0625 |
| AGCGTGAC | 0.0851 |
| CTCTTCCC | -0.154 |
| CAGGAACC | -0.149 |
| AGGAGGAA | 0.0527 |
| ACCCAAGT | 0.0612 |
| AACGATCG | 0.0315 |
| AACTAGTC | -0.0213 |
| ATACTGGG | -0.184 |
| ACGCCATG | 0.167 |
| AAGCTTGG | -0.289 |
| CGCTGGTA | -0.0542 |
| AACCACCT | -0.154 |
| GCCAGGCA | -0.222 |
| GTATGATA | 0.287 |
| ACGTCAAA | 0.25 |
| CACCCTTA | -0.117 |
| AATATTAA | 0.25 |
| AGCCTAAT | -0.0707 |
| CGGTCCAG | -0.224 |
| AACAACGC | 0.254 |
| ATATATGA | 0.108 |
| CTTTCGTA | 0.00759 |
| ACGCTAGG | -0.174 |

| Sequence | PBM E-score |
| --- | --- |
| GACGTACC | -0.0623 |
| AGCTCTTG | -0.0127 |
| ATTAAAGG | 0.113 |
| ACGGCGGC | -0.14 |
| AGTGCTGA | -0.108 |
| ACGAACCG | 0.00216 |
| CCCTTACC | -0.165 |
| GAAACTTC | -0.121 |
| CGGGTACC | -0.239 |
| ATCCGTCC | -0.272 |
| ATTTCCAC | 0.069 |
| GGAACGTA | 0.0173 |
| CGCGGAAG | -0.0872 |
| GCATTGCC | -0.0338 |
| AATAACTC | 0.0959 |
| AATAGTTC | 0.151 |
| ACCGGTGC | -0.25 |
| CCCAGCCC | -0.389 |
| CCGCTAAA | -0.175 |
| AAGTATCG | 0.154 |
| GGATCCAA | -0.0601 |
| TACGCGAA | 0.332 |
| CATGATGA | 0.21 |
| AGGCTAGG | -0.348 |
| AAGGCGGT | -0.0706 |

| Sequence | PBM E-score |
| --- | --- |
| CGATCATC | -0.0477 |
| TTGCACAA | 0.203 |
| AGCATGTG | 0.22 |
| CAACAGGC | 0.0114 |
| AATCCAGT | -0.0636 |
| TATTTCAA | 0.188 |
| CCTTAGGA | -0.169 |
| AGGTCTTG | -0.13 |
| AAGGGGGA | -0.232 |
| ATTGTATA | 0.171 |
| CGGAGGAA | -0.0987 |
| TGGCAACA | 0.13 |
| AAAGTTGC | -0.104 |
| TACCGTCA | -0.193 |
| TAGCTCAA | -0.0444 |
| CGCCCAGA | -0.216 |
| TGAGCGCA | -0.151 |
| AGGGCCCC | -0.303 |
| AGGGGTCC | -0.286 |
| ACCGTTTG | -0.113 |
| CCTGGCGA | -0.245 |
| AAGGCGTG | -0.0975 |
| GGCTTTGA | -0.146 |
| CGACCCTC | -0.219 |
| AACTAAGG | 0.029 |

| Sequence | PBM E-score |
| --- | --- |
| GACGCCCA | -0.255 |
| AGGCGAAC | -0.0962 |
| CTAATAAA | 0.156 |
| GAGAAGCA | -0.172 |
| AGCTAACA | 0.127 |
| AGGCCAAT | -0.244 |
| CCGTTAGG | -0.136 |
| GAGAGGGA | -0.221 |
| ATCCCTAC | -0.0149 |
| CAATAGAC | 0.0079 |
| ACATCCCA | 0.105 |
| CGGGTCAA | -0.0612 |
| CACCTTAA | -0.103 |
| GTGTTGGA | 0.224 |
| TACGTAAA | 0.41 |
| GTCGACAC | 0.267 |
| CATCGTAC | 0.0679 |
| AATTATGG | 0.05 |
| TGGTCAAA | 0.0883 |
| CCAGCCCC | -0.239 |
| TGTGAACA | 0.276 |
| GTCAGCGA | -0.185 |
| ACGGGACG | -0.176 |
| AATCAGGG | -0.316 |
| GCACCCCA | -0.251 |

| Sequence | PBM E-score |
| --- | --- |
| ATGAATTG | 0.00136 |
| ATATTCAG | 0.106 |
| ATGAGTCA | -0.0308 |
| CCCACCAG | -0.143 |
| AAATATGT | 0.277 |
| CAAGTCCG | -0.0826 |
| AAAATACT | 0.0699 |
| ACATGCCC | 0.323 |
| AGGTCTAA | -0.0143 |
| ACCACGGT | -0.134 |
| CCCGTAGA | -0.3 |
| ACAATCGC | 0.159 |
| AGACCTTA | 0.00677 |
| TATAATAA | 0.225 |
| AGATTACG | 0.261 |
| TTTCCAAA | 0.00373 |
| CCAATGGG | -0.394 |
| GTTGATGA | 0.113 |
| CATTCTCA | 0.0464 |
| ACCTCACC | -0.149 |
| TATATAAA | 0.235 |
| ACTCATGA | -0.0271 |
| GATTTTGA | 0.12 |
| CACGGCCG | -0.0123 |
| AATTTATG | 0.237 |

| Sequence | PBM E-score |
| --- | --- |
| AGGACGAC | -0.194 |
| CATACGCA | 0.198 |
| GAGAGTTA | 0.00013 |
| CGAAAATA | 0.144 |
| ACTCGCGC | -0.0754 |
| ATCTCTTC | -0.0365 |
| CCATTACC | -0.0103 |
| AGATCAGC | -0.177 |
| AGGCAAGA | -0.0128 |
| AAACTTAT | 0.167 |
| CATCCGCA | 0.086 |
| CGACGACG | -0.0668 |
| CTTTATTA | 0.185 |
| TGGGTCAA | -0.195 |
| CACGTTCC | 0.0632 |
| CATCTAGC | -0.0263 |
| ACCGGTTC | -0.26 |
| ATGAAGCG | -0.108 |
| CGCGACGA | 0.0277 |
| CAAGCTAG | 0.0741 |
| CAAACACA | 0.334 |
| AGAGTAGA | 0.0362 |
| AGGTCGCC | -0.344 |
| GCCTAGGA | -0.256 |
| CTGCTTGC | -0.0894 |

| Sequence | PBM E-score |
| --- | --- |
| CAATTGAG | -0.0077 |
| ACACCCCG | -0.238 |
| ACAGCACA | 0.28 |
| CGGCTTTA | -0.0882 |
| GCCCCGCA | -0.218 |
| ATCTGTAA | 0.158 |
| ACTTAGCT | -0.146 |
| ACCTGTCT | -0.328 |
| AACTAACG | 0.185 |
| TACGGCCA | -0.262 |
| GCGAGAAC | -0.0962 |
| GCATCCGA | -0.226 |
| AGTCGACC | -0.251 |
| ATGGGCAG | -0.259 |
| CCAAACGA | -0.202 |
| CCCGAAGA | -0.24 |
| CGATCGGC | -0.12 |
| GGACTAAA | -0.0757 |
| AATCAGAG | -0.101 |
| AAAGTCGC | 0.101 |
| GTAACACA | 0.324 |
| CGGACTGA | -0.27 |
